The results in this text go back to the supplement of paper PMC11417369.

± gives the standard deviation of the averaged measurements. The list shows a part of the results.

The assay concerns PfAP2-LT AP2 domain (GST-tagged). Kind of assay: gcPBM binding intensity (ln(normalized median fluorescence intensity)); higher = stronger DNA binding. The procedure, abridged: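 Binding intensity values are the highest Masliner-normalised natural-log median intensity among replicate spots of either probe orientation. The binding step lasted 1 h in 1× PBS with 1% milk, 0.2 mg/ml BSA, 0.5% salmon testes DNA and 0.03% Triton X-100, using GST-tagged P. falciparum DNA-binding domains expressed in E. coli on an Agilent 4 × 180k array of primer-extended double-stranded 36-bp intergenic genomic probes plus negative controls. Alexa488 anti-GST antibody and a 488 nm scan detected bound protein.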
In the case of “TACCTACCTTTACGGAGTACACAATAATAGTTATAA [XGTACX_site6593]”, the “gcPBM binding intensity (ln)” value worked out at 8.72 ± 0.41.
For “ATATGATTAATTAAGTGTACGTATTTATAATTATAA [XGTACX_site5783]” the value was 8.6 ± 0.44; for “ATTACAATTTTAATAGTGCATTTTTATATATTTCTA [GTGCAC_site9918]”, 8.6 ± 0.5; for “ATATAACTTTTAAAAGCATGCAAATATTTACTCAAT [TGCATGCA_site396]”, 8.78 ± 0.45.
For “TTTTTACTATAAGGGGAAAAAAAAAAAAATAATATA [XGTACX_negctrl_site279]” the value was 8.2 ± 0.6.
For “TAAACATATACACGTACATGCAACGGATTTTTTTTT [TGCATGCA_site70]”, the “gcPBM binding intensity (ln)” value is 8.81 ± 0.4.
For “CAAGAAAAGAAACACACACACATATATATATATATA [CACACA_site3881]” the value was 10.4 ± 0.28; for “TATATATATATATGTGCACACATAATAAAAAAAAAA [CACACA_site3830]”, 9.71 ± 0.23; for “ATTTTAGATGAAAAAGCACACAACATATATATATAT [CACACA_site2295]”, 9.44 ± 0.38.
For “ATTCTTTTTTTTTGGAAATGTATTTTTATGTTTTGT [TGCATGCA_negctrl_site426]” the value was 8.76 ± 0.51; for “TTGCCCATTTCATTAACACACAAATGTTTATATTCT [CACACA_site4569]”, 9.09 ± 0.43.
For “TTAACTCAAGAGTGTACACATATATATATATATATA [CACACA_site4334]” the value was 9.96 ± 0.28.
Regarding “AATACCCATTTTAGTACACACTTAAAAAATTATTTT [CACACA_site5611]”, the “gcPBM binding intensity (ln)” value came out at 8.69 ± 0.44.
For “TATATTTTTTAAAAAGCATGCAAAAAATAATGATCA [TGCATGCA_site48]” the value was 8.64 ± 0.35; for “ACGTTGAAGAAATACACATGCATATTCTATATATAT [TGCATGCA_site76]”, 8.91 ± 0.4; for “GTATAATATGAACACACACACACACGCAAAAAAAAA [CACACA_site7036]”, 10.19 ± 0.064.
For “TCATTTTATTTTTTCACACACACATATATATATATA [CACACA_site3333]” the value was 9.54 ± 0.26.
For CTCTTATGCTAGGAAGTGCAATAGTATGGGTACCAC the value was 8.59 ± 0.45; for “TAATATATATAAACATGTACAAATCAAAAACAAAAG [XGTACX_site4076]”, 9.07 ± 0.47; for “ATTTATTTTTATATAACACACAAAGTATAATATAAC [CACACA_site3582]”, 8.63 ± 0.4.
“ATATATTTATATTTATGTACATATCTTTATTTACGT [XGTACX_site6800]”: the “gcPBM binding intensity (ln)” value was determined as 9.11 ± 0.51.
For “ATATATATATCGATCTGTACATATATTTATAGACAT [XGTACX_site4236]” the value was 8.97 ± 0.45.
For “TGTAAAACTGAAAAGGGTACATATAAATATATATAT [XGTACX_site69]” the value was 8.88 ± 0.42; for “AAAGAAATACAATGATGTACATTTAAAAAAAATTAA [XGTACX_site4324]”, 8.7 ± 0.62; for “ACAAGAAAATATATTTGTACATATATAATTTTATTT [XGTACX_site548]”, 8.6 ± 0.35.
For “ATTAGTAAGAATCATTGTACATTATAATATGTGGTA [XGTACX_site1341]” the value was 8.84 ± 0.32.
As to “TTTTTAAAAAAGTAAAGTACAAAAAAAAGGAATATC [XGTACX_site588]”, the “gcPBM binding intensity (ln)” value came out at 8.91 ± 0.7.
For “TGCTTCCTTAGGAATGTACACACATATATAATATGT [CACACA_site8048]” the value was 9.28 ± 0.35; for “TTACATATTTTTTAACGTACATAAATATATATGTAT [XGTACX_site8406]”, 8.69 ± 0.42; for “TTAAATAAAAAAATAACACACATATAAATATATATG [CACACA_site3175]”, 8.78 ± 0.39.
For “ACTCAAACCTTTAGAGTGCAAAAAAAAAAAAAAAAA [GTGCAC_site9952]” the value was 8.46 ± 0.43.
On to “TTGTAAAAATTAATACATATATATATATATATATAT [CACACA_negctrl_site6]”, for which the “gcPBM binding intensity (ln)” value turned out to be 9.53 ± 0.16.
For “ATATATTTGATTTACACACTTACAATGTATATAAAT [CACACA_site2993]” the value was 8.84 ± 0.38; for “AAAGAAATAAGGTGCACACATATACAGATATATATA [CACACA_site4399]”, 9.4 ± 0.47; for “CTCTTTTTTTGCAAAAGTACAAATGGGGATATATTT [XGTACX_site5813]”, 8.84 ± 0.32.
Take “GCATTATTTACCACAACACACAAATATTTACCAATC [CACACA_site2669]”: the “gcPBM binding intensity (ln)” value is 9.07 ± 0.29.
For “TAATTTCATCATATTTGTTCCTTCTCAAAATTTTTT [CACACA_negctrl_site217]” the value was 8.56 ± 0.57.
For “TTCCTAAGAATAATCAGTACACATAAAAAGAACATA [XGTACX_site7861]” the value was 8.69 ± 0.38.
For “ACTATATATTTAATATGTACACATATTTCTGTCGAT [XGTACX_site6878]” the value was 9.09 ± 0.42.
As for “ATAATTATCATAGGATGTACATATTTATTTTGTATA [XGTACX_site7797]”, the “gcPBM binding intensity (ln)” value is 8.79 ± 0.38.
For “ATATGTTAAATTATTCGTACGTAAAAAAAAATGGAT [XGTACX_site3465]” the value was 8.81 ± 0.37.
For “AAAAAGGGTATTATTACACACACGTAAATATTAATA [CACACA_site101]” the value was 9.14 ± 0.44; for “AGATTTATACAAATATGTACACACTAAATATATATT [XGTACX_site864]”, 8.96 ± 0.4; for “CTTTTTTTAATATGCACACATATATTTTATATATTA [CACACA_site2077]”, 8.9 ± 0.42.
